According to the supplement of paper PMC4604168 (melanoma cell lines):
The list shows a part of the results. Many values rest on one well or one pass, so single values are uncertain.

System: COLO829
Assay: cell count relative to DMSO control; melanoma cells; higher = more viable cells
Conditions: library dose: low library concentration; 72 h
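Also: cell number obtained by counting DAPI-stained nuclei in high-throughput microscope images with image analysis software, screen run in 1,536-well plates.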

SMILES	cell count [%]
CS(=O)(=O)CCNCc1ccc(-c2ccc3ncnc(Nc4ccc(OCc5cccc(F)c5)c(Cl)c4)c3c2)o1 [lapatinib] + OCc1c[nH]c2ccccc12 [Indole-3-carbinol] (first compound 0.8 µM, partner dose 0.8 µM)	90.1
CNC(=O)c1cc(Oc2ccc(NC(=O)Nc3ccc(Cl)c(C(F)(F)F)c3)cc2)ccn1 [sorafenib] + C#Cc1cccc(Nc2ncnc3cc(OCCOC)c(OCCOC)cc23)c1 [erlotinib] (first compound 0.4 µM, partner dose 0.8 µM)	77.9
C=CCNC1=C2C[C@@H](C)C[C@H](OC)[C@H](O)[C@@H](C)/C=C(\C)[C@H](OC(N)=O)[C@@H](OC)/C=C\C=C(/C)C(=O)NC(=CC1=O)C2=O [Tanespimycin] + Cn1c(Nc2ccc(C(F)(F)F)cc2)nc2cc(Oc3ccnc(-c4ncc(C(F)(F)F)[nH]4)c3)ccc21 [CHIR265] (first compound 0.002 µM, partner dose 0.08 µM)	85.1
CN1CCN(c2ccc3nc(-c4c(N)c5c(F)cccc5[nH]c4=O)[nH]c3c2)CC1 [Dovitinib] + OCc1c[nH]c2ccccc12 [Indole-3-carbinol] (first compound 0.1 µM, partner dose 0.8 µM)	96.6
CNC(=O)c1cc(Oc2ccc(NC(=O)Nc3ccc(Cl)c(C(F)(F)F)c3)cc2)ccn1 [sorafenib] + CS(=O)(=O)CCNCc1ccc(-c2ccc3ncnc(Nc4ccc(OCc5cccc(F)c5)c(Cl)c4)c3c2)o1 [lapatinib] (first compound 0.4 µM, partner dose 0.8 µM)	115
CN1CCN(c2ccc3nc(-c4c(N)c5c(F)cccc5[nH]c4=O)[nH]c3c2)CC1 [Dovitinib] + CS(=O)(=O)CCNCc1ccc(-c2ccc3ncnc(Nc4ccc(OCc5cccc(F)c5)c(Cl)c4)c3c2)o1 [lapatinib] (first compound 0.1 µM, partner dose 0.8 µM)	92.9
CNC(=O)c1cc(Oc2ccc(NC(=O)Nc3ccc(Cl)c(C(F)(F)F)c3)cc2)ccn1 [sorafenib] + Nc1nc(F)nc2c1ncn2[C@@H]1O[C@H](CO)[C@@H](O)[C@@H]1O [fludarabine] (first compound 0.4 µM, partner dose 0.2 µM)	103
CNC(=O)c1cc(Oc2ccc(NC(=O)Nc3ccc(Cl)c(C(F)(F)F)c3)cc2)ccn1 [sorafenib] + COc1ccc(Cl)c(Nc2nc3ccccc3nc2NS(=O)(=O)c2cccc(NC(=O)C(C)(C)N)c2)c1 [XL147] (first compound 0.4 µM, partner dose 0.8 µM)	103
CS(=O)(=O)CCNCc1ccc(-c2ccc3ncnc(Nc4ccc(OCc5cccc(F)c5)c(Cl)c4)c3c2)o1 [lapatinib] + C=C(c1ccc(C(=O)O)cc1)c1cc2c(cc1C)C(C)(C)CCC2(C)C [Bexarotene] (first compound 0.8 µM, partner dose 2 µM)	101
C[C@@H](Oc1cc(-c2cnn(C3CCNCC3)c2)cnc1N)c1c(Cl)ccc(F)c1Cl [Crizotinib] + C#Cc1cccc(Nc2ncnc3cc(OCCOC)c(OCCOC)cc23)c1 [erlotinib] (first compound 0.2 µM, partner dose 0.8 µM)	115
CNC(=O)c1cc(Oc2ccc(NC(=O)Nc3ccc(Cl)c(C(F)(F)F)c3)cc2)ccn1 [sorafenib] + Cn1c(Nc2ccc(C(F)(F)F)cc2)nc2cc(Oc3ccnc(-c4ncc(C(F)(F)F)[nH]4)c3)ccc21 [CHIR265] (first compound 0.4 µM, partner dose 0.08 µM)	122
C=CCNC1=C2C[C@@H](C)C[C@H](OC)[C@H](O)[C@@H](C)/C=C(\C)[C@H](OC(N)=O)[C@@H](OC)/C=C\C=C(/C)C(=O)NC(=CC1=O)C2=O [Tanespimycin] + CC(=O)c1c(C)c2cnc(Nc3ccc(N4CCNCC4)cn3)nc2n(C2CCCC2)c1=O [palbociclib] (first compound 0.002 µM, partner dose 0.04 µM)	86.3
CN1CCN(c2ccc3nc(-c4c(N)c5c(F)cccc5[nH]c4=O)[nH]c3c2)CC1 [Dovitinib] + Cc1nc(Nc2ncc(C(=O)Nc3c(C)cccc3Cl)s2)cc(N2CCN(CCO)CC2)n1 [dasatanib] (first compound 0.1 µM, partner dose 0.004 µM)	90.9
CN1CCN(c2ccc3nc(-c4c(N)c5c(F)cccc5[nH]c4=O)[nH]c3c2)CC1 [Dovitinib] + C=C(c1ccc(C(=O)O)cc1)c1cc2c(cc1C)C(C)(C)CCC2(C)C [Bexarotene] (first compound 0.1 µM, partner dose 2 µM)	79.2
CNC(=O)c1cc(Oc2ccc(NC(=O)Nc3ccc(Cl)c(C(F)(F)F)c3)cc2)ccn1 [sorafenib] + CC(=O)c1c(C)c2cnc(Nc3ccc(N4CCNCC4)cn3)nc2n(C2CCCC2)c1=O [palbociclib] (first compound 0.4 µM, partner dose 0.04 µM)	100
C=CCNC1=C2C[C@@H](C)C[C@H](OC)[C@H](O)[C@@H](C)/C=C(\C)[C@H](OC(N)=O)[C@@H](OC)/C=C\C=C(/C)C(=O)NC(=CC1=O)C2=O [Tanespimycin] + OCc1c[nH]c2ccccc12 [Indole-3-carbinol] (first compound 0.002 µM, partner dose 0.8 µM)	108
CS(=O)(=O)CCNCc1ccc(-c2ccc3ncnc(Nc4ccc(OCc5cccc(F)c5)c(Cl)c4)c3c2)o1 [lapatinib] + Cn1c(Nc2ccc(C(F)(F)F)cc2)nc2cc(Oc3ccnc(-c4ncc(C(F)(F)F)[nH]4)c3)ccc21 [CHIR265] (first compound 0.8 µM, partner dose 0.08 µM)	89
CN1CCN(c2ccc3nc(-c4c(N)c5c(F)cccc5[nH]c4=O)[nH]c3c2)CC1 [Dovitinib] + C=CCNC1=C2C[C@@H](C)C[C@H](OC)[C@H](O)[C@@H](C)/C=C(\C)[C@H](OC(N)=O)[C@@H](OC)/C=C\C=C(/C)C(=O)NC(=CC1=O)C2=O [Tanespimycin] (first compound 0.1 µM, partner dose 0.002 µM)	104
CN1CCN(c2ccc3nc(-c4c(N)c5c(F)cccc5[nH]c4=O)[nH]c3c2)CC1 [Dovitinib] + Nc1cccc2c1CN(C1CCC(=O)NC1=O)C2=O [lenalidomide] (first compound 0.1 µM, partner dose 1 µM)	70.5
CN1CCN(c2ccc3nc(-c4c(N)c5c(F)cccc5[nH]c4=O)[nH]c3c2)CC1 [Dovitinib] + O=C(O)[C@@H]1[O][Sb](=[O])([O][Sb]2(=[O])[O][C@H]([C@H](O)CO)[C@H](O)[C@H](C(=O)O)[O]2)[O][C@H]([C@H](O)CO)[C@@H]1O [stibogluconate] (first compound 0.1 µM, partner dose 2 µM)	86.4
C=CCNC1=C2C[C@@H](C)C[C@H](OC)[C@H](O)[C@@H](C)/C=C(\C)[C@H](OC(N)=O)[C@@H](OC)/C=C\C=C(/C)C(=O)NC(=CC1=O)C2=O [Tanespimycin] + COc1ccc(Cl)c(Nc2nc3ccccc3nc2NS(=O)(=O)c2cccc(NC(=O)C(C)(C)N)c2)c1 [XL147] (first compound 0.002 µM, partner dose 0.8 µM)	98.9
CN1CCN(c2ccc3nc(-c4c(N)c5c(F)cccc5[nH]c4=O)[nH]c3c2)CC1 [Dovitinib] + Nc1ncn([C@H]2C[C@H](O)[C@@H](CO)O2)c(=O)n1 [decitabine] (first compound 0.1 µM, partner dose 0.1 µM)	87.2
C[C@@H](Oc1cc(-c2cnn(C3CCNCC3)c2)cnc1N)c1c(Cl)ccc(F)c1Cl [Crizotinib] + Cc1nc(Nc2ncc(C(=O)Nc3c(C)cccc3Cl)s2)cc(N2CCN(CCO)CC2)n1 [dasatanib] (first compound 0.2 µM, partner dose 0.004 µM)	48.8
CS(=O)(=O)CCNCc1ccc(-c2ccc3ncnc(Nc4ccc(OCc5cccc(F)c5)c(Cl)c4)c3c2)o1 [lapatinib] + CC(=O)c1c(C)c2cnc(Nc3ccc(N4CCNCC4)cn3)nc2n(C2CCCC2)c1=O [palbociclib] (first compound 0.8 µM, partner dose 0.04 µM)	86
CS(=O)(=O)CCNCc1ccc(-c2ccc3ncnc(Nc4ccc(OCc5cccc(F)c5)c(Cl)c4)c3c2)o1 [lapatinib] + COCC[n+]1c2c(n(Cc3cnccn3)c1C)C(=O)c1ccccc1C2=O [YM155] (first compound 0.8 µM, partner dose 0.0004 µM)	96.5
CN1CCN(c2ccc3nc(-c4c(N)c5c(F)cccc5[nH]c4=O)[nH]c3c2)CC1 [Dovitinib] + COCC[n+]1c2c(n(Cc3cnccn3)c1C)C(=O)c1ccccc1C2=O [YM155] (first compound 0.1 µM, partner dose 0.0004 µM)	92.9
C[C@@H](Oc1cc(-c2cnn(C3CCNCC3)c2)cnc1N)c1c(Cl)ccc(F)c1Cl [Crizotinib] + CCCS(=O)(=O)Nc1ccc(F)c(C(=O)c2c[nH]c3ncc(Cl)cc23)c1F [PLX4720] (first compound 0.2 µM, partner dose 0.08 µM)	105
C=CCNC1=C2C[C@@H](C)C[C@H](OC)[C@H](O)[C@@H](C)/C=C(\C)[C@H](OC(N)=O)[C@@H](OC)/C=C\C=C(/C)C(=O)NC(=CC1=O)C2=O [Tanespimycin] + Cc1nc(Nc2ncc(C(=O)Nc3c(C)cccc3Cl)s2)cc(N2CCN(CCO)CC2)n1 [dasatanib] (first compound 0.002 µM, partner dose 0.004 µM)	76.3
